The source gives no read counts; variants with many changes may rest on few reads.
B1: CPEB3 Ribozyme (parent)
chain: UAACAGGGGGCCACAGCAGAAGCGUUCACGUCGCAGCCCCUGUCAGAUUCUGGUGAAUCUGCGAAUUCUGCUGUAUAUCUC

Variants of: B1
Assay: self-cleavage, relative activity (ratio to wild type); higher = more cleavage; in vitro, sequencing
How it was run: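 After error-prone PCR and barcoding, CPEB3 ribozyme mutant libraries were transcribed with T7 RNA polymerase at 37°C for 5 hours, then given 15 min with DNase I before an EDTA stop, and they cleaved during both steps. Reverse transcription with template switching preceded Illumina sequencing. Relative activity divides a variant's cleaved/total read fraction by the unmutated ribozyme's. At least 5 reads were required per variant, and three batches were averaged.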
Variant UAACAGGGGGCCACAGCAGAAGCGUUCACGUCGCAGCCCCUGUCAGAUUCUGGUGUAUCUGCAAAUUCCGCUGUAUAUCCC [A56U G63A U69C U80C] has a self-cleavage of 0.39. Variant UAACAGGGGGCCACAGCAGAAGCGUUCACGUCGCAGCCCCUGUCAGAUUCUGGUGUAUCUGCUAAUGCUGCUGUAAAUCUC [A56U G63U U67G U76A] has a self-cleavage of 0.31. For UAACAGGGGGCCACAGCAGAAGCGUUCACGUCGCAGCCCCUGUCAGAUUCUGGUGUACCUGCGAACUCUGCUGUAUAUCUC [A56U U58C U66C], the self-cleavage was 0.46. UAACAGGGGGCCACAGCAGAAGCGUUCACGUCGCAGCCCCUGUCAGAUUCUGGUGUACCUGCGAAUUCCGCUGUAUAACUC [A56U U58C U69C U78A] showed a self-cleavage of 0.13. Work on UAACAGGGGGCCACAGCAGAAGCGUUCACGUCGCAGCCCCUGUCAGAUUCUGGUGUAUCAGUGGAUUCUGCUGUAUAUCUC [A56U U60A C62U A64G] yielded a self-cleavage of 0.12. In the case of UAACAGGGGGCCACAGCAGAAGCGUUCACGUCGCAGCCCCUGUCAGAUUCUGGUGUAUCCGCGAAUCCUGCUGUAUAUCUC [A56U U60C U67C], the self-cleavage is reported as 0.26. With UAACAGGGGGCCACAGCAGAAGCGUUCACGUCGCAGCCCCUGUCAGAUUCUGGUGUAUCCGCGAAUUCUGCUGUAAAUCUC [A56U U60C U76A] the self-cleavage was 0.15. With UAACAGGGGGCCACAGCAGAAGCGUUCACGUCGCAGCCCCUGUCAGAUUCUGGUGUAUCCGCGAAUUCUGCUGUACAUCUC [A56U U60C U76C] the self-cleavage was 0.37. UAACAGGGGGCCACAGCAGAAGCGUUCACGUCGCAGCCCCUGUCAGAUUCUGGUGUAUCGGCGAACUCUGCUGUAUGUCUC [A56U U60G U66C A77G] showed a self-cleavage of 0.17. Work on UAACAGGGGGCCACAGCAGAAGCGUUCACGUCGCAGCCCCUGUCAGAUUCUGGUGUAUCUGCGAAUCCUCCUGUAUAUCUC [A56U U67C G70C] yielded a self-cleavage of 0.22. UAACAGGGGGCCACAGCAGAAGCGUUCACGUCGCAGCCCCUGUCAGAUUCUGGUGUAUCUGCGAAUCCUGCCGUAUAACUC [A56U U67C U72C U78A] showed a self-cleavage of 0.32. UAACAGGGGGCCACAGCAGAAGCGUUCACGUCGCAGCCCCUGUCAGAUUCUGGUGUAUCUGCGAAUUCCGCUGUAUACCUC [A56U U69C U78C] showed a self-cleavage of 0.29. UAACAGGGGGCCACAGCAGAAGCGUUCACGUCGCAGCCCCUGUCAGAUUCUGGUGUAUCUGCGAAUUCUGCUGAUUAUCUC [A56U U74A A75U] gave a self-cleavage of 1.18. UAACAGGGGGCCACAGCAGAAGCGUUCACGUCGCAGCCCCUGUCAGAUUCUGGUGUAUCUGCGAAUUCUGCUGCCUAUCUC [A56U U74C A75C] gave a self-cleavage of 0.96. Work on UAACAGGGGGCCACAGCAGAAGCGUUCACGUCGCAGCCCCUGUCAGAUUCUGGUGUAUCUGCGAAUUCUGCUGCACAUCUC [A56U U74C U76C] yielded a self-cleavage of 1.22. UAACAGGGGGCCACAGCAGAAGCGUUCACGUCGCAGCCCCUGUCAGAUUCUGGUGACUCUGCGUACCCUGCUGUAUACCUC [A57C A64U U66C U67C U78C] showed a self-cleavage of 0.17. With UAACAGGGGGCCACAGCAGAAGCGUUCACGUCGCAGCCCCUGUCAGAUUCUGGUGACUCUGCGAACUCUGCUGUGUAUCUC [A57C U66C A75G] the self-cleavage was 0.08. Work on UAACAGGGGGCCACAGCAGAAGCGUUCACGUCGCAGCCCCUGUCAGAUUCUGGUGACUCUGCGAAUUCUGCAGAAUAUCUC [A57C U72A U74A] yielded a self-cleavage of 0.41. Variant UAACAGGGGGCCACAGCAGAAGCGUUCACGUCGCAGCCCCUGUCAGAUUCUGGUGAGUCUGCGGAUUCUGCUGCAUAUCUC [A57G A64G U74C] has a self-cleavage of 1.19. With UAACAGGGGGCCACAGCAGAAGCGUUCACGUCGCAGCCCCUGUCAGAUUCUGGUGAGUCUGCGGAUUCUGCUGUAAAUCUC [A57G A64G U76A] the self-cleavage was 0.58. Work on UAACAGGGGGCCACAGCAGAAGCGUUCACGUCGCAGCCCCUGUCAGAUUCUGGUGAGUCUGCGGAUUCUGCUGUAUAACUC [A57G A64G U78A] yielded a self-cleavage of 1.15. Variant UAACAGGGGGCCACAGCAGAAGCGUUCACGUCGCAGCCCCUGUCAGAUUCUGGUGAGUCUGCGGAUUCUGCUGUAUAUCAC [A57G A64G U80A] has a self-cleavage of 0.65. Variant UAACAGGGGGCCACAGCAGAAGCGUUCACGUCGCAGCCCCUGUCAGAUUCUGGUGAGUCUGCGUAUUCUGCUGUAUGUCUC [A57G A64U A77G] has a self-cleavage of 0.23. UAACAGGGGGCCACAGCAGAAGCGUUCACGUCGCAGCCCCUGUCAGAUUCUGGUGAGUCUGCGUAUUCUGCUGUACAUCUC [A57G A64U U76C] showed a self-cleavage of 0.38. UAACAGGGGGCCACAGCAGAAGCGUUCACGUCGCAGCCCCUGUCAGAUUCUGGUGAGUCUGCGAGUUCCGCUGUAUUUCUC [A57G A65G U69C A77U] gave a self-cleavage of 0.34. In the case of UAACAGGGGGCCACAGCAGAAGCGUUCACGUCGCAGCCCCUGUCAGAUUCUGGUGAGUCUGCGAAUUCUGCUGUAUGUCCC [A57G A77G U80C], the self-cleavage is reported as 0.43. Variant UAACAGGGGGCCACAGCAGAAGCGUUCACGUCGCAGCCCCUGUCAGAUUCUGGUGAGUCUGCGAAUUCUGAUGCAUAUCUC [A57G C71A U74C] has a self-cleavage of 0.3. Work on UAACAGGGGGCCACAGCAGAAGCGUUCACGUCGCAGCCCCUGUCAGAUUCUGGUGAGUCUGCACAUUCUGCUGUACAUCCC [A57G G63A A64C U76C U80C] yielded a self-cleavage of 0.32. UAACAGGGGGCCACAGCAGAAGCGUUCACGUCGCAGCCCCUGUCAGAUUCUGGUGAGUCUGCGAAUUCUCCUGUAUAUCAC [A57G G70C U80A] showed a self-cleavage of 0.38. Variant UAACAGGGGGCCACAGCAGAAGCGUUCACGUCGCAGCCCCUGUCAGAUUCUGGUGAGUCUGCGAAUUCUGCUAUAUAUCCC [A57G G73A U80C] has a self-cleavage of 1.29. For UAACAGGGGGCCACAGCAGAAGCGUUCACGUCGCAGCCCCUGUCAGAUUCUGGUGAGACUGCGGAUUCUGCUGUAAAUCUC [A57G U58A A64G U76A], the self-cleavage was 0.2. In the case of UAACAGGGGGCCACAGCAGAAGCGUUCACGUCGCAGCCCCUGUCAGAUUCUGGUGAGACUGCCAAUUCUUCUGUAUAUCUC [A57G U58A G63C G70U], the self-cleavage is reported as 0.23. Work on UAACAGGGGGCCACAGCAGAAGCGUUCACGUCGCAGCCCCUGUCAGAUUCUGGUGAGACUGCGAAUUCUGCUGUAUACCUC [A57G U58A U78C] yielded a self-cleavage of 0.23. Work on UAACAGGGGGCCACAGCAGAAGCGUUCACGUCGCAGCCCCUGUCAGAUUCUGGUGAGCCUGCGAAUUCUGCUGUAUAUCAC [A57G U58C U80A] yielded a self-cleavage of 0.37.

Source: the RNAGym collection of RNA variant scans (doi:10.1093/nar/gkz1192)
